These results are taken from patent publication US20230050148A1, “TGF-BETA INHIBITORS AND USE THEREOF” (SCHOLAR ROCK, INC., priority 2020, published 2023).

For test [1], the target named is all TGFβ1 LLCs in the LN229 activation assays. Put plainly: cell-based or functional assay.
Test [2] concerns the target latent TGFβ1 from human, rat, and cynomolgus monkey (LN229 transfectants). Put plainly: cell-based or functional assay.

B1: Ab6 (antibody)
heavy: EVQLVESGGGLVQPGGSLRLSCTASGFTFSSFSMDWVRQAPGKGLEWVSYISPSADTIYYADSVKGRFTISRDNAKNTLYLQMNSLRAEDTAVYYCARGVLDYGDMLMPWGQGTLVTVSSASTKGPSVFPLAPCSRSTSESTAALGCLVKDYFPEPVTVSWNSGALTSGVHTFPAVLQSSGLYSLSSVVTVPSSSLGTKTYTCNVDHKPSNTKVDKRV[not shown - human IgG4 Fc with S228P (EU numbers)]
light: DIQMTQSPSSLSASVGDRVTITCQASQDITNYLNWYQQKPGKAPKLLIYDASNLETGVPSRFSGSGSGTDFTFTISSLQPEDIATYYCQQADNHPPWTFGGGTKVEIKRTVAAPSVFIFPPSDEQLKSGTASVVCLLNNFYPREAKVQWKVDNALQSGNSQESVTEQDSKDSTYSLSSTLTLSKADYEKHKVYACEVTHQGLSSPVTKSFNRGEC
In turn, B1 had an IC50, integrin-mediated activation in LN229/CAGA12 co-culture in test [1] of 1.15 to 1.42 nM. This molecule showed an IC50, activation of latent TGFβ1 in LN229/CAGA12 co-culture in test [2] of 1.02 to 1.11 nM.
